The record followed here is publication PMC4336329 (PLoS ONE, 2015).

SMILES strings stand for the structures. Among all 310,000 compounds or so, about 14,000 (4.5%) showed an effect of 50% or more. Effects have a minus sign here. The list shows a part of the results.
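Further: peak tail current of the secondary pulse compared with the same well before compound.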

In the test the target is human ether-à-go-go-related gene (hERG) potassium channel (human, UniProt Q12809). The test is described as follows: primary screen, population patch clamp on CHO cells stably expressing hERG.
human ether-à-go-go-related gene (hERG) potassium channel, sequence (Q12809 whole entry, looked up): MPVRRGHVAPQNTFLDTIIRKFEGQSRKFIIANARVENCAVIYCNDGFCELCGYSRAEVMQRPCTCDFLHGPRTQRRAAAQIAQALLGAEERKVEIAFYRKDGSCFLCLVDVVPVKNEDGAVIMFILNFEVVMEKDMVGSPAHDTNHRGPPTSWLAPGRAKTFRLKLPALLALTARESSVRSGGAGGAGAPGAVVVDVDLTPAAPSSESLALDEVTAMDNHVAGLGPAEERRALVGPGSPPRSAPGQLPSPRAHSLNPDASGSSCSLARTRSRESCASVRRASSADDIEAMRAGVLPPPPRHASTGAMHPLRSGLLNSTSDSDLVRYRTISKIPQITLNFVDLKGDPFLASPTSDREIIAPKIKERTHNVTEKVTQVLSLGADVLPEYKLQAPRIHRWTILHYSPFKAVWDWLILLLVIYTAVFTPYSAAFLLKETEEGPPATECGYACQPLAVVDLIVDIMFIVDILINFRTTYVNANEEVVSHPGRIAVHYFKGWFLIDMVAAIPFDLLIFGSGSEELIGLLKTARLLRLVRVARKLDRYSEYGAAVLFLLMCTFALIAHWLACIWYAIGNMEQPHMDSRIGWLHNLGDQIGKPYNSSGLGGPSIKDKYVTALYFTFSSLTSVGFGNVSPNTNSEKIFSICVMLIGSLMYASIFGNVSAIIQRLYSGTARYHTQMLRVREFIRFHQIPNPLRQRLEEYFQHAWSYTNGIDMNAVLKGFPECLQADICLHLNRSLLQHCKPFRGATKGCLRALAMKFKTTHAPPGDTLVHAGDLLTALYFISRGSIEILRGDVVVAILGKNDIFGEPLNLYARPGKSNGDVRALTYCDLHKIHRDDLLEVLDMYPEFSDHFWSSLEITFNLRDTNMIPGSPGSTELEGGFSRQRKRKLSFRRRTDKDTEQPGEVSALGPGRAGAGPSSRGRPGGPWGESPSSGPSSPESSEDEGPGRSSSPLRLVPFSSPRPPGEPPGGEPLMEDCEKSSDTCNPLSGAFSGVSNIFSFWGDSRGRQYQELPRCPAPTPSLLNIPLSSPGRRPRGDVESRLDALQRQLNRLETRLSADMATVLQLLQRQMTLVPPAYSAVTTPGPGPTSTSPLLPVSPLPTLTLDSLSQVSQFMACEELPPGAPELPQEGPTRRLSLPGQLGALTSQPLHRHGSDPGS
For `CCOc1ccc(-n2nnc3c(=O)n(CC(=O)N4CCCc5ccccc54)cnc32)cc1`, the “hERG current change (%, negative = inhibition) at 10uM” value is on record as -4.52%. For the molecule `CCCCCCn1c(COc2ccccc2F)nnc1SCC(=O)c1c(N)n(C)c(=O)n(C)c1=O`, the “hERG current change (%, negative = inhibition) at 10uM” value is listed as 9.75%. `Cc1ccc(NS(=O)(=O)c2ccc(-n3cccn3)cc2)cc1F`: the “hERG current change (%, negative = inhibition) at 10uM” value amounted to 15.6%. `Cn1c(-c2ccncc2)nc2ccccc21`: the “hERG current change (%, negative = inhibition) at 10uM” value is reported as 3.78%. For the molecule `O=C(Nc1ccccc1N1CCN(C(=O)c2ccc(Cl)cc2)CC1)c1cccc([N+](=O)[O-])c1`, the “hERG current change (%, negative = inhibition) at 10uM” value was -75%. For `O=C(CCN1C(=O)/C(=C/c2ccccc2Cl)SC1=S)NNC(=O)c1cccnc1`, the “hERG current change (%, negative = inhibition) at 10uM” value is listed as 18.4%. Turning to `O=C1NC(=O)C(=Cc2csc3ccccc23)C(=O)N1`, the “hERG current change (%, negative = inhibition) at 10uM” value is reported as 7.68%. As to `CCOC(=O)C1(Cc2cccc(OC)c2)CCN(C(C)CC(C)(C)O)CC1` (stereo not drawn), the “hERG current change (%, negative = inhibition) at 10uM” value was -28.5%.

With `Cc1ccc(F)cc1CNC(=O)C1CCC(=O)N(C2CC2)C1` (stereo not drawn), the “hERG current change (%, negative = inhibition) at 10uM” value is on record as 2.81%.

With `O=C(O)C1C2C=CC(O2)C1C(=O)NCc1ccc(Cl)cc1` (stereo not drawn), the “hERG current change (%, negative = inhibition) at 10uM” value is reported as 8.85%. In the case of `CCCc1cc(N2CCN(C(=O)c3ccco3)CC2)n2c(nc3ccccc32)c1C#N` it was -56.1%; in that of `Cc1cc(F)ccc1S(=O)(=O)Nc1ncnc2scc(-c3ccc(F)cc3)c12`, 7.17%; in that of `CC1Cc2cc(/C(O)=C3\C(=O)C(=O)N(Cc4ccncc4)C3c3ccccc3F)ccc2O1` (stereo not drawn), 4.63%. Regarding `Cc1cccc(Nc2nnc(SCC3CCCCO3)s2)c1` (stereo not drawn), the “hERG current change (%, negative = inhibition) at 10uM” value is -22.5%.

With `COc1ccc(NC(=O)CN2CCC(C(N)=O)CC2)cc1`, the “hERG current change (%, negative = inhibition) at 10uM” value was found to be 2.76%. With `CCOP(=O)(c1ccc(N(C)C)cc1)C(O)c1ccccc1OC` (stereo not drawn), the “hERG current change (%, negative = inhibition) at 10uM” value amounted to 2.07%. In the case of `O=C(CSc1nc2[nH]ncc2c(=O)[nH]1)N1CCCC1` it was 16.8%; in that of `CCOc1ccc(N(C(=O)c2snc(C(N)=O)c2N)C(CC)C(=O)NC2CCCC2)cc1` (stereo not drawn), 20.3%. As to `O=C(c1ccc(N2C(=O)CCC2=O)cc1)N1CCOCC1`, the “hERG current change (%, negative = inhibition) at 10uM” value came out at 7.4%. Take `COc1ccc(CCNC(=S)NC(=O)c2cccc([N+](=O)[O-])c2)cc1OC`: the “hERG current change (%, negative = inhibition) at 10uM” value was -6.36%. With `O=C(O)COc1ccccc1/C=N/NC(=O)CSc1nc2ccccc2n1Cc1ccccc1Cl`, the “hERG current change (%, negative = inhibition) at 10uM” value is reported as 1.42%. As to `Clc1ccc2c(N3CCNCC3)ccnc2c1`, the “hERG current change (%, negative = inhibition) at 10uM” value is on record as -41.9%. Turning to `COc1ccc(OC)c(S(=O)(=O)N2CCCc3ccccc32)c1`, the “hERG current change (%, negative = inhibition) at 10uM” value is -22.9%.

Turning to `Cc1cc(C(F)F)n2nc(C(=O)Nc3cccc(C(F)(F)F)c3)nc2n1`, the “hERG current change (%, negative = inhibition) at 10uM” value is -32.7%.

With `O=C(CSc1nnc(-c2ccncc2)n1Cc1ccco1)c1ccc(Cl)cc1`, the “hERG current change (%, negative = inhibition) at 10uM” value is recorded as -46%. In the case of `Nn1c(SCc2cccc(C(F)(F)F)c2)nnc1-c1ccco1` it was -11.7%; in that of `Cc1ccc2c(C)c(C(=O)N(Cc3ccncc3)CC3CCCO3)oc2c1C` (stereo not drawn), -51.9%; in that of `CCOC(=O)c1ccc(NC(=O)CN2CCN(C(=O)c3ccco3)CC2)cc1`, -49.4%.

For `Cl.Fc1ccccc1CNCCC(Cc1ccccc1)c1ccc2c(c1)OCO2` (stereo not drawn), the “hERG current change (%, negative = inhibition) at 10uM” value was -50.6%. In the case of `Cc1cccc(CSc2nncc(=O)[nH]2)c1` it was 15%; in that of `COc1cc2ccccc2cc1C(=O)NC(=S)Nc1nnn(C)n1`, 18.7%.

Regarding `O=C(N/N=C/C=C/c1ccco1)c1cccs1`, the “hERG current change (%, negative = inhibition) at 10uM” value was found to be 0.56%. As for `COC(=O)c1[nH]c2cc(OC)ccc2c1NC(=O)CCN1CCN(c2ccccc2)CC1`, the “hERG current change (%, negative = inhibition) at 10uM” value is recorded as -67%. For `CC(=O)Oc1ccc(N2C(=O)C3C4C=CC(CC4)C3C2=O)cc1[N+](=O)[O-]` (stereo not drawn), the “hERG current change (%, negative = inhibition) at 10uM” value worked out at 8.49%.

As for `CCN(CC)S(=O)(=O)c1cc(C(=O)OCC(=O)Nc2cccc(Br)c2)ccc1F`, the “hERG current change (%, negative = inhibition) at 10uM” value was determined as 13.2%. Regarding `COCCn1c(=S)[nH]c2cc(C(=O)N3CCN(Cc4ccc5c(c4)OCO5)CC3)ccc2c1=O`, the “hERG current change (%, negative = inhibition) at 10uM” value is -3.68%. In the case of `CN1CCN(CC(=O)NC2CCCCC2)CC1.Cl` it was 18%. As for `C=CCNC(=O)N1CCCC(C(=O)c2cccc(Cl)c2)C1` (stereo not drawn), the “hERG current change (%, negative = inhibition) at 10uM” value was -13%.

As to `COc1ccc(C(=O)Nc2ccc(S(=O)(=O)NC(C)C)cc2)cc1`, the “hERG current change (%, negative = inhibition) at 10uM” value is -7.14%. In the case of `CN1CCN(Cc2cc(=O)oc3ccc(Cl)cc23)CC1` it was -16.7%; in that of `Cc1cc(C)c(-n2c(SCC(=O)N3CCOCC3)n[nH]c2=O)c(C)c1`, 19.8%; in that of `CN(C)C(CNC(=O)CCNC(=O)c1ccc(Cl)cc1)c1ccco1` (stereo not drawn), -6.99%. In the case of `N#Cc1c(/N=C/C=C/c2ccccc2)sc2c1CCCC2` it was -0.27%; in that of `COc1c(F)cc2[nH]c3c(c2c1F)CCNC3=O`, 7.3%; in that of `Cc1ccc(NC(=O)c2ccccc2NC(=O)Cc2ccccc2)cc1`, 3.19%. In the case of `O=C(Cn1ccc2ccccc2c1=O)N1CCN(Cc2ccc3c(c2)OCO3)CC1`, the “hERG current change (%, negative = inhibition) at 10uM” value was -14.8%.

Regarding `Cc1cc(C(=O)NNC(=O)c2ccc(NC(=O)CC#N)cc2)c(C)o1`, the “hERG current change (%, negative = inhibition) at 10uM” value was 11.8%. `Cc1ccc(C(=O)NC(=C(Cl)Cl)S(=O)(=O)c2ccc(Cl)cc2)cc1`: the “hERG current change (%, negative = inhibition) at 10uM” value was 27.1%.

`COc1nccnc1NS(=O)(=O)c1ccc(NC(=S)NC(=O)c2ccccc2F)cc1`: the “hERG current change (%, negative = inhibition) at 10uM” value is given as -3.47%. As for `COc1cccc(/C=N\n2c(C)nnc2C)c1OC`, the “hERG current change (%, negative = inhibition) at 10uM” value is 3.6%.

Regarding `NC(=O)CC(NC(=O)Cc1cccc2ccccc12)c1ccc(NCc2ccc(F)cc2)c([N+](=O)[O-])c1` (stereo not drawn), the “hERG current change (%, negative = inhibition) at 10uM” value is given as -1.55%. In the case of `Cc1ccc(NC(=O)COc2ncnc3ccccc23)cc1S(=O)(=O)N1CCOCC1` it was -1.45%; in that of `Cc1nc(N2C(=O)C(=O)/C(=C(/O)c3ccccc3)C2c2ccco2)sc1C` (stereo not drawn), -6.12%; in that of `COc1cccc(-c2nc(CS(=O)(=O)CC(=O)NC3CCCC3)c(C)o2)c1`, 3.06%. `Cc1cccc(N2CCN(C(=O)c3ccc(N4CCCC4=O)cc3)CC2)c1C`: the “hERG current change (%, negative = inhibition) at 10uM” value was -43.3%.

For `CCOC(=O)c1c(C)n(C)c2ccc(OCC(O)Cn3nc(C)cc3C)cc12` (stereo not drawn), the “hERG current change (%, negative = inhibition) at 10uM” value came out at 3.2%. Turning to `O=C(Nc1cccnc1)/C(N=Nc1cccnc1)=C(\O)c1ccccc1`, the “hERG current change (%, negative = inhibition) at 10uM” value was -53%. In the case of `COc1ccc(-c2c(C)nc3c(-c4ccccn4)cnn3c2N)cc1` it was 12.5%. For `CCn1c(CNC(=O)c2ccccc2F)cc2ccccc21`, the “hERG current change (%, negative = inhibition) at 10uM” value was determined as 9.02%. In the case of `COc1ccc(CN2CCC(n3nccc3NC(=O)CCOc3ccccc3)CC2)cc1C` it was -68.7%; in that of `O=C(c1ccccc1)n1c(=O)c(F)cn(COCCBr)c1=O`, 17.5%; in that of `O=C(O)c1cc(-c2c[nH]c3ccccc23)nc2ccc3ccccc3c12`, 2.25%. Consider `Oc1ccc(O)cc1`, for which the “hERG current change (%, negative = inhibition) at 10uM” value is 10.8%.

Take `O=C(O)CC1(Cc2nc(-c3cccs3)no2)CCCC1`: the “hERG current change (%, negative = inhibition) at 10uM” value is on record as 6.17%. `CSc1cccc(NC(=O)CN2C(=O)COc3ccc(S(=O)(=O)N4CCOCC4)cc32)c1`: the “hERG current change (%, negative = inhibition) at 10uM” value came out at 2.13%.

For the molecule `COC(=O)C1=C(C(=O)OC)SC2(S1)C(C(=O)OC)=C(C(=O)OC)SC1=C2c2cc(C)cc(C)c2NC1(C)C`, the “hERG current change (%, negative = inhibition) at 10uM” value is recorded as 26.1%. For the molecule `O=C(CCN1CCCC1=O)NC1CCCc2c1cnn2-c1ccc(F)cc1F` (stereo not drawn), the “hERG current change (%, negative = inhibition) at 10uM” value is on record as -2.54%.

Regarding `CC/C(=N\NC(=O)c1ccncc1)C12CC3CC(CC(C3)C1)C2`, the “hERG current change (%, negative = inhibition) at 10uM” value is 8%. As for `CC(Sc1nnc(-c2ccc(Cl)cc2Cl)n1Cc1ccccc1)C(=O)Nc1nccs1` (stereo not drawn), the “hERG current change (%, negative = inhibition) at 10uM” value is on record as -16%. As for `CCOC(=O)CSc1nc2ccccc2c(=O)n1-c1ccc(C)cn1`, the “hERG current change (%, negative = inhibition) at 10uM” value is on record as 0.327%. In the case of `CN(C)C(Cc1ccccc1)C(=O)c1ccccc1.Cl` (stereo not drawn) it was -0.684%; in that of `COc1cccc(OCc2cc(C(=O)N3CCN(C(C)=O)CC3)no2)c1`, -1.97%; in that of `Cc1ccc(NC(=O)C2CCCC2)c(Br)c1`, 23.3%. `N#Cc1c(-c2c(Cl)cccc2Cl)noc1/C=C/Nc1ccc(C(=O)O)cc1`: the “hERG current change (%, negative = inhibition) at 10uM” value is reported as -27.1%.

As to `Cc1noc(C)c1S(=O)(=O)Nc1ccc(C(=O)Nc2ccc(OC(F)(F)F)cc2)cc1`, the “hERG current change (%, negative = inhibition) at 10uM” value was 0.557%.

As for `Clc1ccc(Cl)c(Oc2ccc(Oc3nc(Cl)ccc3Cl)cc2)n1`, the “hERG current change (%, negative = inhibition) at 10uM” value came to 25.5%. For the molecule `O=C(O)CCc1nc(-c2ccccc2)no1`, the “hERG current change (%, negative = inhibition) at 10uM” value is 20.9%. With `CCCCCCC1CCC(C(=O)NC(CCSC)C(=O)NC(C(=O)OC)C(C)C)CC1` (stereo not drawn), the “hERG current change (%, negative = inhibition) at 10uM” value is 6.46%. In the case of `CCn1c(SC)nnc1-c1ccc(S(=O)(=O)N2CCCCC2)cc1` it was -12.1%. In the case of `COc1ccc(Oc2coc3cc(OC(=O)N4CCOCC4)ccc3c2=O)cc1`, the “hERG current change (%, negative = inhibition) at 10uM” value is recorded as -25.3%.

For the molecule `CCc1ccc(NC(=O)N(Cc2cccnc2)Cc2ccco2)cc1`, the “hERG current change (%, negative = inhibition) at 10uM” value is -53.1%. With `CCN1CCN(Cc2c(O)ccc3c2O/C(=C\C=C\c2ccccc2OC)C3=O)CC1`, the “hERG current change (%, negative = inhibition) at 10uM” value is -34.9%.

In the case of `CCOc1ccc(CCNC(=O)COC(=O)COc2ccc(C(=O)CC)cc2)cc1OCC`, the “hERG current change (%, negative = inhibition) at 10uM” value is 14.4%. `CC(/C=C/c1ccccc1)=N/NC(=O)c1cccc(Br)c1`: the “hERG current change (%, negative = inhibition) at 10uM” value was -10.1%. Regarding `COc1cc(C(=O)N[C@@H](C)C(=O)NCc2ccco2)cc(OC)c1OC`, the “hERG current change (%, negative = inhibition) at 10uM” value amounted to 21.6%. For `Cc1ccc(OCC(=O)NC(C)c2ccccc2)c([N+](=O)[O-])n1` (stereo not drawn), the “hERG current change (%, negative = inhibition) at 10uM” value was -4.79%. Turning to `COCC(=O)N1CCC(Oc2ccc(C(=O)NCCCn3cccn3)cc2)CC1`, the “hERG current change (%, negative = inhibition) at 10uM” value was 11.9%.
